These results are taken from PMC4336329 (PLoS ONE, 2015).

Structures are written as SMILES. Screen size: about 310,000 compounds; about 14,000 (4.5%) showed an effect of 50% or more. Effects have a minus sign here. Some of the results follow.
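Also: peak tail current of the secondary pulse compared with the same well before compound.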

This experiment deals with human ether-à-go-go-related gene (hERG) potassium channel (human, UniProt Q12809). As to the kind of experiment: primary screen, population patch clamp on CHO cells stably expressing hERG.
Sequence of human ether-à-go-go-related gene (hERG) potassium channel (Q12809 whole entry, looked up): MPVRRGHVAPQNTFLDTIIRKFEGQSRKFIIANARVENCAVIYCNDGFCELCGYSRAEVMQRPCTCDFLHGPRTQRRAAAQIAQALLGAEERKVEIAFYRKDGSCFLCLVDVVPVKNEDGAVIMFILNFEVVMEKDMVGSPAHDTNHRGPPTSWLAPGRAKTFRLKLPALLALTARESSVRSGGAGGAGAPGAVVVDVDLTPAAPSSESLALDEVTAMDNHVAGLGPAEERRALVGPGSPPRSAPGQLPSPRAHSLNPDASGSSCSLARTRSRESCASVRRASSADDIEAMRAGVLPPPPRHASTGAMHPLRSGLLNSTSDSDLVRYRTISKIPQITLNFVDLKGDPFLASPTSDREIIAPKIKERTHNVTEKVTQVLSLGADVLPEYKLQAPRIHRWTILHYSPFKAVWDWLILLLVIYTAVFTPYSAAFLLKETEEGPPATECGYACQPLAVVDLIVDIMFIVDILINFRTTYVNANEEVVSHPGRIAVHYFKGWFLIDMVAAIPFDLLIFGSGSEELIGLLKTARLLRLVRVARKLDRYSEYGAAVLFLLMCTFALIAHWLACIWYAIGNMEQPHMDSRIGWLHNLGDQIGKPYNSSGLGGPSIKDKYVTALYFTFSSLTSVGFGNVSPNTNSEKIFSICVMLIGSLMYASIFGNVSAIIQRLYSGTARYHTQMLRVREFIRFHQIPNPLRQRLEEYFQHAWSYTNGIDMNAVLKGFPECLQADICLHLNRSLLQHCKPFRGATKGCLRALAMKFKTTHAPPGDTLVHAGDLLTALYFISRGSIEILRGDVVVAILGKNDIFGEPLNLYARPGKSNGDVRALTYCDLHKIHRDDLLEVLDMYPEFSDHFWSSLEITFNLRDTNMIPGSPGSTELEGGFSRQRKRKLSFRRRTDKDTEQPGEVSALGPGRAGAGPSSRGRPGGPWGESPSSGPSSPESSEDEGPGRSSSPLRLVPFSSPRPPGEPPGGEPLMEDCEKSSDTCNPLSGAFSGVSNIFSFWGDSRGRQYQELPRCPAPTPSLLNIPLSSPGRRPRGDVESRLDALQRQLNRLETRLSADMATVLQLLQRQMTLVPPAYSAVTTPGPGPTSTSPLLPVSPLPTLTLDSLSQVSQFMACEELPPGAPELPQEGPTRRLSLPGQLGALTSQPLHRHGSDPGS
With `C=CCNc1oc(-c2cccc3ccccc23)nc1C#N`, the “hERG current change (%, negative = inhibition) at 10uM” value was -10.2%. In the case of `CCN1CCCC1CNC(=O)C(NC(=O)C1CCC(C)CC1)C(C)C` (stereo not drawn), the “hERG current change (%, negative = inhibition) at 10uM” value is listed as 8.48%. As to `COc1ccc(OCC(=O)Nc2cc(-c3nn4c(C)nnc4s3)ccc2C)cc1`, the “hERG current change (%, negative = inhibition) at 10uM” value is reported as -4.85%. Regarding `CCOC(=O)c1c(-c2ccc(C)o2)csc1NC(=O)COC(=O)c1cccs1`, the “hERG current change (%, negative = inhibition) at 10uM” value is recorded as -12%. Regarding `C=CCn1c(=S)sc2c(=O)[nH]cnc21`, the “hERG current change (%, negative = inhibition) at 10uM” value amounted to 12.4%.

Consider `Cc1nnc(SCc2cccc([N+](=O)[O-])c2)s1`, for which the “hERG current change (%, negative = inhibition) at 10uM” value is -0.735%. To `COc1ccc(OCCn2ccnc2)cc1` belongs 12.4%; to `COc1cccc(NC(=O)CC2C(=O)NC3CCCCC3N2C(=O)c2ccccc2)c1` (stereo not drawn), 16.9%. With `Cc1ccc(NC(=O)C(=O)NCCN2CCN(C(=O)C(c3ccccc3)c3ccccc3)CC2)cc1` the figure was -9.93%; with `CCC(C)NC(=O)C(=O)NCc1ccncc1` (stereo not drawn), 15.9%. To `COc1ccccc1NC(=S)N1CCc2cc(OC)c(OC)cc2C1` belongs -0.62%.

For the molecule `Cc1cc(-n2c(C)cc(C(=O)CSc3ccc4c(c3)OCCO4)c2C)no1`, the “hERG current change (%, negative = inhibition) at 10uM” value is recorded as 1.7%.

For `CCCCCn1c(SCC(=O)OCC)nc2cc(C(=O)N3CCC(C(N)=O)CC3)ccc2c1=O`, the “hERG current change (%, negative = inhibition) at 10uM” value is recorded as -58.4%. Regarding `Nc1nc(COC(=O)C2CC(=O)N(Cc3ccccc3Cl)C2)nc(Nc2ccccc2)n1` (stereo not drawn), the “hERG current change (%, negative = inhibition) at 10uM” value is -55.6%. With `CCCc1ccc2oc(C(=O)NCCCN3CCOCC3)c(C)c2c1` the figure was -42.9%. As to `Cc1ccc(C(=O)COc2cccc(NC(=O)c3ccco3)c2)cc1`, the “hERG current change (%, negative = inhibition) at 10uM” value is reported as -4.71%. For `CCN(CC)S(=O)(=O)c1ccc2nc(NC(=O)c3ccco3)sc2c1`, the “hERG current change (%, negative = inhibition) at 10uM” value is reported as -23.5%. With `COC(=O)c1ccc(C2C(C#N)=C(N)Oc3cc(C)n(C)c(=O)c32)cc1` (stereo not drawn) the figure was 9.41%. To `CCOC(=O)c1cc(-c2ccc(N3CCOCC3)cc2)nn1-c1ccc(F)cc1F` belongs -40.2%; to `CC(=O)Nc1ccc(NC(=O)CN(c2cccc([N+](=O)[O-])c2)S(C)(=O)=O)cc1`, 15.6%; to `COc1ccc(N(CC(=O)NCc2ccc(C)cc2)S(=O)(=O)c2ccccc2[N+](=O)[O-])c(OC)c1`, 8.6%. As to `CCCCn1c(-c2csc(C(C)C)c2)n[nH]c1=S`, the “hERG current change (%, negative = inhibition) at 10uM” value came out at 20.9%. Take `COC(=O)C1CCN(C(=O)Cc2c(OC)ccc3cc(Br)ccc23)CC1`: the “hERG current change (%, negative = inhibition) at 10uM” value was -17.3%. With `CCn1c(/C=N/Nc2ccc(C(=O)O)cc2)nc2ccccc21` the figure was 13.1%; with `Cc1ccc(-n2[nH]c(C)c(/C=N/NC(=O)c3ccc(O)cc3O)c2=O)cc1`, 28.3%; with `CCOC(=O)C1=C(C)Nc2nc(SCC(=O)OC)nn2C1c1cc(F)cc(F)c1` (stereo not drawn), -5.97%. In the case of `Cc1ccc(-c2cc(C(=O)Nc3ccc(S(=O)(=O)Nc4ncccn4)cc3)c3ccccc3n2)cc1`, the “hERG current change (%, negative = inhibition) at 10uM” value is 4.88%. As for `CCn1c(-c2ccc(-c3ccccc3)cc2)c[nH]c1=S`, the “hERG current change (%, negative = inhibition) at 10uM” value came out at 7.16%. Turning to `CCC(Oc1ccccc1OC)C(=O)Nc1ccc2c(c1)OCCO2` (stereo not drawn), the “hERG current change (%, negative = inhibition) at 10uM” value was -11.5%. With `Cc1ccc2occ(/C=C/C(=O)O)c(=O)c2c1` the figure was -3.44%. Take `CC(C)(C)NC(=O)C(OC(=O)Cn1nnc(-c2ccc(F)cc2)n1)c1ccncc1` (stereo not drawn): the “hERG current change (%, negative = inhibition) at 10uM” value came out at 29.9%. To `Cc1ccc(SCc2ccc(C(=O)NCc3cccnc3)cc2)cc1` belongs 3.85%; to `CCc1ccccc1NC(=O)COC(=O)c1cccs1`, 15.7%. `Cc1cccc(OCC(=O)N2CCN(C(=O)c3cccs3)CC2)c1`: the “hERG current change (%, negative = inhibition) at 10uM” value is listed as -7.23%.

With `O=C(O)c1ccccc1-c1ccc(C=C2C(=O)N(c3ccccc3)C(=S)N(c3ccccc3)C2=O)o1`, the “hERG current change (%, negative = inhibition) at 10uM” value amounted to 9.37%. With `CC(=O)c1cccc(NC(=O)c2ccc3c(c2)OCO3)c1` the figure was 14.4%. Take `O=C(COC(=O)c1n[nH]c2ccccc12)Nc1ccc([N+](=O)[O-])cc1`: the “hERG current change (%, negative = inhibition) at 10uM” value is listed as 5.33%.

In the case of `COC(=O)CCCC1=CC2=C(c3ccccc3)C(=O)C(C)(OC(=O)C3CCCC3)C(=O)C2=CN1CCc1ccccn1` (stereo not drawn), the “hERG current change (%, negative = inhibition) at 10uM” value was -3.78%. As to `O=c1c2ccccc2oc2ncccc12`, the “hERG current change (%, negative = inhibition) at 10uM” value was -5.57%.

For the molecule `CS(=O)(=O)N1CCN(C2Cc3ccccc3C2)CC1.O=C(O)C(=O)O`, the “hERG current change (%, negative = inhibition) at 10uM” value is on record as -14.1%.

As to `CCCSc1nc(C)c(CC(=O)OCC)c(=O)[nH]1`, the “hERG current change (%, negative = inhibition) at 10uM” value was -9.61%. To `O=[N+]([O-])c1ccc(Oc2ccc(OCc3ccccc3)cc2)nc1` belongs 6.84%; to `Cc1nc(-c2ccccc2)sc1C(=O)CSc1ccc(Cl)cc1`, 8.43%. To `O=C(CCCN1C(=O)/C(=C\c2cccs2)SC1=S)Nc1cccc(C(=O)O)c1` belongs 9.57%; to `CCCn1c(N)cc(=O)n(C)c1=O`, 10.7%; to `CN1CCN(c2nc3c(c(=O)[nH]c(=O)n3C)n2Cc2cccc3ccccc23)CC1`, -27.6%. To `C/C(N)=C(\C#N)C(=O)NCCc1ccccn1` belongs 20.5%. For `N#CCC1c2ccccc2CCN1C(=O)Nc1ccc(C(F)(F)F)cc1` (stereo not drawn), the “hERG current change (%, negative = inhibition) at 10uM” value was -30.4%. In the case of `CN(Cc1nc(CCc2ccccc2)no1)Cc1cccs1`, the “hERG current change (%, negative = inhibition) at 10uM” value is recorded as -21.6%. With `CC1=CC=CC2=NC(=O)CC(C)(C(=O)O)N12` (stereo not drawn) the figure was 11.3%; with `Cc1ccccc1OCCCCN1CCCCC1`, 12.6%. As for `COc1ccc2[nH]c(=O)c(CN(C(=O)c3cccnc3)c3ccc(C)cc3C)cc2c1`, the “hERG current change (%, negative = inhibition) at 10uM” value stood at 2.21%.

On to `Cc1ccc(CN2CCN(C3CCC3)CC2CCO)cc1` (stereo not drawn), for which the “hERG current change (%, negative = inhibition) at 10uM” value is 1.93%. Turning to `O=C1NC(c2ccc(F)cc2)Oc2ccccc21` (stereo not drawn), the “hERG current change (%, negative = inhibition) at 10uM” value is -1.89%. Consider `O=C1N=C(N2CCc3ccccc3C2)S/C1=C\c1cccc(O)c1`, for which the “hERG current change (%, negative = inhibition) at 10uM” value was -6.98%.

Take `COc1ccc(CNC(=O)C2CCN(S(=O)(=O)c3ccc(-c4nn[nH]n4)cc3)CC2)cc1`: the “hERG current change (%, negative = inhibition) at 10uM” value is -2.06%. To `O=C(O)C1CC1c1ccc(Br)cc1` (stereo not drawn) belongs 0.418%.
